The source of these data is the supplement of paper PMC10338343.

± gives the standard deviation. Whole data set: some 3,700 sequences, median “pre-steady-state target cleavage rate” near 0.02, cut for the highest 2% near 0.23. The list shows a part of the results, in another mix than the full data.

In the assay the test system is MILI (PIWIL2) piRISC loaded with Kctd7 piRNA (26 nt). The assay is described as follows: pre-steady-state target cleavage rate (min^-1); MIWI and MILI are mouse PIWI proteins and EfPiwi is from a freshwater sponge; tags in brackets are library labels; higher = faster piRNA-guided slicing of the target. As to conditions: guide: Kctd7 piRNA 5'p-UGUUAAUCUCUCAGAGAAGGUGACAG; auxiliary factor: 500 nM mouse GTSF1. An outline of the steps: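 Cleave-'n-Seq used a transcribed, DNA-blocked target RNA library at 0.1 nM and active affinity-purified piRISC with one synthetic guide at 1 nM, with or without 500 nM GTSF1 partner protein, in HEPES–potassium acetate buffer at 33 °C for 0–8 or 0–960 min. Uncleaved targets were sequenced and normalised to depth and to weakly complementary targets, and three trials were pooled with k3 capped at 0.0001 min^-1. The pre-steady-state cleavage rate was estimated by a burst-and-steady-state fit.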
In the case of UAGUGACAGACCUUCUCUGAGAGUAUUAACA, the “pre-steady-state target cleavage rate” value was 0.0651 ± 0.0098. As to UAGUGUGACACCUUCUCUGAGACAUUAACA, the “pre-steady-state target cleavage rate” value worked out at 0.0419 ± 0.01. UAGUGACACACCAUCUCUGAGUGAUUAACA: the “pre-steady-state target cleavage rate” value came to 0.00584 ± 0.0032.

In the case of UAGUGUGUCUCCUUCUCUGAGAGAUUAAGA, the “pre-steady-state target cleavage rate” value was found to be 0.0383 ± 0.011. The same measure for UAGUGACAGACGCUUCUCUGAGAGAUUAACA: 0.0399 ± 0.0079; for UAGUGAGUCACCUUUCUGAGAGAUUAACA: 0.0759 ± 0.019. As to UAGUGACACUCGUUCUCUGAGAGAUUAACA, the “pre-steady-state target cleavage rate” value turned out to be 0.0811 ± 0.0066. Regarding UAGUGAGUCUGCUUCUCUGAGAGAUUAAGA, the “pre-steady-state target cleavage rate” value is 0.0302 ± 0.0066. The same measure for UAGUGUGUCACCUUCUCAGAGAGAUUUACA: 0.219 ± 0.042; for UAGUGACUCACCUUCUCAGAGAGAUUAUGA: 0.0325 ± 0.0095.

Regarding UAGUGACAGUCCUUCUCUCAGAGAUUAACA, the “pre-steady-state target cleavage rate” value was determined as 0.0166 ± 0.005. As to UAGUGUGUCACCUUAUCUGAGAGAUUAACA, the “pre-steady-state target cleavage rate” value was 0.134 ± 0.014.

For UAGUGAGUCUCCUUCUCUGUGAGAUUAACA, the “pre-steady-state target cleavage rate” value worked out at 0.0227 ± 0.0046.

As to UAGUGAGUCACCUUCUCAGAGACAUUAACA, the “pre-steady-state target cleavage rate” value was 0.0969 ± 0.018.

For the sequence UAGUGAGUCACCUUCUCUGAGAGAUUAAGCA, the “pre-steady-state target cleavage rate” value was determined as 0.211 ± 0.038. For UAGUGUGUCACCUCUCUCUGAGAGAUUAACA, the “pre-steady-state target cleavage rate” value turned out to be 0.136 ± 0.019. The same measure for UAGUGACAGUGCUUCUCUGAGAGAUUAAUCA: 0.0116 ± 0.0034; for UAGUGACAGACCUUCACUGAGAGAUUAAGA: 0.00627 ± 0.0044; for UAGUCUGUCACCUUCUCUGAGAGAUUAUCA: 0.156 ± 0.024.

For the sequence UAGUGACAGACAUUCUCUGAGAGAUUAACA, the “pre-steady-state target cleavage rate” value came out at 0.0119 ± 0.0043. In the case of UAGUGAGUCACCUUCUCUUAGAGAUUAACA, the “pre-steady-state target cleavage rate” value was determined as 0.0981 ± 0.01. As for UAGUGACAGUGCUUCUCAGAGAGAUUUACA, the “pre-steady-state target cleavage rate” value was determined as 0.00413 ± 0.003. For “UAGUGACAGUGCUUCUCUGAGAGAUUAACU [g2:g19:cont:t1U]”, the “pre-steady-state target cleavage rate” value was found to be 0.0175 ± 0.0056.

UAGUGAUUCACCUUCUCUGAGAGAUUAACA: the “pre-steady-state target cleavage rate” value was determined as 0.205 ± 0.016.

Regarding UAGUGAGUCAUCUUCUCUGAGAGAUUAACA, the “pre-steady-state target cleavage rate” value amounted to 0.225 ± 0.018. The same measure for UAGUGUCUGACCUUCUCUGAGAGAUUAACA: 0.133 ± 0.0098. For UAGUGACUCACCUUCUGUGAGAGAUUAACA, the “pre-steady-state target cleavage rate” value was determined as 0.149 ± 0.01. To UAGUGACAAACCUUCUCUGAGAGAUUAACA belongs 0.0896 ± 0.0097; to UAGUCUGUCACCUUCUCUGAUAGAUUAACA, 0.0464 ± 0.0055. Consider UAGUGACACUGCUUCUCUGAGAGAUUAAGA, for which the “pre-steady-state target cleavage rate” value stood at 0.0162 ± 0.0035.

As to UAGUGACAGACCUUCUCUGAGGAGAUUAACA, the “pre-steady-state target cleavage rate” value was 0.00818 ± 0.0035.

For the sequence UAGUCUGUCUCCAUCUCUGAGAGAUUAACA, the “pre-steady-state target cleavage rate” value was determined as 0.148 ± 0.01.

For the sequence UAGUGACACACCUUCUGAGAGAGAUUAUGA, the “pre-steady-state target cleavage rate” value is 0.0134 ± 0.0078. On to UAGUCUGUCACCUUCUCUGAGAGUUAACA, for which the “pre-steady-state target cleavage rate” value worked out at 0.278 ± 0.082. For UAGUGACACACCUUCUCUGUGAGUUUAACA, the “pre-steady-state target cleavage rate” value was 0.021 ± 0.0037. The same measure for UAGUCUGUCACCUUCUCUGAGAGAUUAGCA: 0.145 ± 0.036; for UAGUGACAGUCCAACUCUGAGAGAUUAACA: 0.00509 ± 0.0013; for UAGUGACACACCUCUCUCUGAGAGAUUAACA: 0.0883 ± 0.01. As to UAGUGUGUCACCUUCUCUCAGAGAUUAACA, the “pre-steady-state target cleavage rate” value came out at 0.0641 ± 0.0097.

In the case of UAGUGACAGAGCUUCUGUGAGAGAUUAACA, the “pre-steady-state target cleavage rate” value was found to be 0.0298 ± 0.011. Regarding UAGUGAGUCACGCUUCUCUGAGAGAUUAACA, the “pre-steady-state target cleavage rate” value was found to be 0.0876 ± 0.0077. For UAGUGACAGUGCUUCUCUGAGAGAUUAUCA, the “pre-steady-state target cleavage rate” value amounted to 0.00765 ± 0.0025. As to UAGUGACAGUCCUUACUCUGAGAGAUUAACA, the “pre-steady-state target cleavage rate” value is 0.0261 ± 0.0042.

On to UAGUGACACACCUUCUCAGUGAGAUUAACA, for which the “pre-steady-state target cleavage rate” value was found to be 0.0189 ± 0.0044. On to UAGUGACAGUGCUUCUCUGAGAGGUUAACA, for which the “pre-steady-state target cleavage rate” value was determined as 0.0352 ± 0.0067. For the sequence UAGUGACACACCUUCUCUGAGUGAUUAACA, the “pre-steady-state target cleavage rate” value worked out at 0.0058 ± 0.0038. As to UAGUGACUGACCUUCUCUGAGACAUUAACA, the “pre-steady-state target cleavage rate” value was determined as 0.0245 ± 0.0067.

UAGUCUGUCACCAACUCUGAGAGAUUAUGA: the “pre-steady-state target cleavage rate” value worked out at 0.014 ± 0.0039. The same measure for UAGUCUGUCACCUUCUGUGAGACAUUAACA: 0.0532 ± 0.0092; for UAGUGACUGACCUUCUCUGUGAGAUUAACA: 0.0475 ± 0.0061; for UAGUGACUCUCCUUCUCUGAGAGUUUAACA: 0.0271 ± 0.0097. Turning to UAGUGACUCACCUUCCCUGAGAGAUUAACA, the “pre-steady-state target cleavage rate” value came to 0.124 ± 0.023. In the case of UAGUGACUCACCAUCUCUGAGACAUUAACA, the “pre-steady-state target cleavage rate” value came to 0.035 ± 0.0075. Consider UAGUGUGUCUCCUUCUCUGAGAGAAUAACA, for which the “pre-steady-state target cleavage rate” value amounted to 0.0308 ± 0.011. To UAGUGAGUCACCUUCUCAGAGAGAUUAAGA belongs 0.047 ± 0.017. On to UAGUGACAGUGCUGUCUCUGAGAGAUUAACA, for which the “pre-steady-state target cleavage rate” value is 0.0194 ± 0.0047. As to UAGUGAGUCACCUUCUCUGUGAGAUUAAGA, the “pre-steady-state target cleavage rate” value turned out to be 0.0266 ± 0.011. As for UAGUGACACACCUUCUCUGAGAUAUUAACA, the “pre-steady-state target cleavage rate” value came to 0.0707 ± 0.013.

As for UAGUGUGUCACCUUCUCUGAGAGUAUUAACA, the “pre-steady-state target cleavage rate” value is 0.202 ± 0.03. Regarding UAGUGACACCACCUUCUCUGAGAGAUUAACA, the “pre-steady-state target cleavage rate” value was found to be 0.184 ± 0.017. For the sequence UAGUGACUCACCUACUCUGAGAGAUUAACA, the “pre-steady-state target cleavage rate” value stood at 0.123 ± 0.0086. To UAGUGACUCAACUUCUCUGAGAGAUUAACA belongs 0.0726 ± 0.01; to UAGUGUGUCACCUUCUCUGACAGUUUAACA, 0.0538 ± 0.02; to UAGUGACAGUCCUUCUCUGAGACGAUUAACA, 0.00422 ± 0.0035.

With UAGUCUCUCACCUUCACUGAGAGAUUAACA, the “pre-steady-state target cleavage rate” value is 0.0146 ± 0.0043. For the sequence UAGUGACAGACCUUCUCUGAGAGAUUUUCA, the “pre-steady-state target cleavage rate” value amounted to 0.00831 ± 0.0055. To UAGUGACAGUCGUUCUCAGAGAGAUUAACA belongs 0.00684 ± 0.0031. To UAGUGACAGUCCUUCUCUGAGAGUUUAACA belongs 0.0141 ± 0.0042; to UAGUGAGUCACGUUCUCUCAGAGAUUAACA, 0.0377 ± 0.0065; to UAGUCUGUCACCUUCUCAGAGAGAUUAAGA, 0.076 ± 0.025. As to UAGUCUGUCACCAUGUCUGAGAGAUUAACA, the “pre-steady-state target cleavage rate” value is 0.0939 ± 0.0075. For UAGUGUGACACCUACUCUGAGAGAUUAACA, the “pre-steady-state target cleavage rate” value was 0.119 ± 0.01.
